Assay results: PubChem BioAssay AID485294 (National Center for Advancing Translational Sciences (NCATS), 2010)
The campaign covered roughly 370,000 compounds. About 150 (0.041%) were called active. Inconclusive means that the source gave no clear call. Such entries were picked first, then a sample of the others. Calls follow the shape of the dose curve; as a rule, active = well fitted inhibition curve with a large enough effect; inconclusive = small, poorly fitted or top-dose-only effect; inactive = flat fitted curve, though single readings scatter. No potency is given beside an inconclusive call; the fits are too rough.

These molecules were tested against Beta-lactamase (Escherichia coli (strain K12)) (UniProt P00811) (assay: qHTS Inhibitors of AmpC Beta-Lactamase (assay with detergent)). Conditions: AmpC hydrolysis of nitrocefin, absorbance 480 nm, 0.01% Triton; series mostly up to 114 µM.
How it was run: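 20 mM phosphate pH 7.0 + 0.01% (detergent screen) or 0.0001% Triton X-100; 5.3 nM AmpC reagent; cpd preinc 15 min RT; nitrocefin (800 uM stock) to start; A480 q20 s × 4 min; Activity was normalised to no-enzyme and no-compound control wells.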
Also: nearly all actives have a fitted effect of over 25% in size.
Potency is read from the fitted curve at half-maximal effect; tags tell the direction and shape of the fitted curve.

Chain of UniProt P00811 (P00811 whole entry, looked up): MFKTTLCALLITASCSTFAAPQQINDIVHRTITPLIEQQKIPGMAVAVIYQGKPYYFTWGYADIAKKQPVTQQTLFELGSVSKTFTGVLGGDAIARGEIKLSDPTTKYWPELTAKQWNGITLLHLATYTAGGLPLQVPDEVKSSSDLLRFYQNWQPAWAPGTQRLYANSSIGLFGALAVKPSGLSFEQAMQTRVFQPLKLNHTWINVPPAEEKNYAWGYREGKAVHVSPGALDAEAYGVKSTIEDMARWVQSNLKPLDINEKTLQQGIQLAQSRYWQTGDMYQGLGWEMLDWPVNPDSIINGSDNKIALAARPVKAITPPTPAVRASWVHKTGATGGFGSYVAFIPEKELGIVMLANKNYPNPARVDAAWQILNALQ

Row | SMILES | Potency
1 | O=C(NCc1ccccc1)C1=C[C@@H](c2csc3ccccc23)C[C@@H](OCCCCO)O1 | inactive
2 | C#CCOc1ccc2c(C)cc(=O)oc2c1 | inconclusive [inhibitor, single point]
3 | CN(c1ccccc1C(=O)Nc1cccc(Br)c1)S(=O)(=O)c1ccccc1 | inconclusive [inhibitor, full curve, poor fit]
4 | CCCCn1c(C(C)NC(=O)c2cccs2)nc2ccccc21 (stereo unspecified) | inconclusive [inhibitor, single point]
5 | Cn1c(=O)cc(SCC(=O)NCC2CCCO2)c2ccc(Cl)cc21 (stereo unspecified) | inconclusive [inhibitor, full curve]
6 | Cc1ccc(C(=O)OCC(=O)N(C)C2CCS(=O)(=O)C2)cc1S(=O)(=O)N1CCCCC1 (stereo unspecified) | inconclusive [inhibitor, full curve, poor fit]
7 | COc1cccc(-n2nnc3c(=O)n(CC(=O)N4CCC(Cc5ccccc5)CC4)cnc32)c1 | inconclusive [inhibitor, single point]
8 | CCn1c(=O)c2ccccc2n(Cc2ccc([N+](=O)[O-])cc2)c1=O | inactive
9 | COc1ccc(NC(=O)CCC(=O)Nc2nnc(C(F)(F)F)s2)c(OC)c1 | inconclusive [inhibitor, full curve, poor fit]
10 | O=C(CCN1CCCO1)NC1CCCc2c1cnn2-c1ccccc1F (stereo unspecified) | inconclusive [inhibitor, partial curve, poor fit]
11 | CCOC(=O)C(C(C)=O)c1c(Br)c(O)c(O)c2c(C(=O)c3ccc(C)cc3)coc12 (stereo unspecified) | inactive
12 | COc1ccc(S(=O)(=O)Nc2c(NC3CCCCC3)c3ccccc3oc2=O)cc1Cl | inconclusive [inhibitor, partial curve, poor fit]
13 | Cc1ccc(CN2CCN(/N=C/c3ccc(C(=O)O)cc3)CC2)cc1 | inconclusive [inhibitor, full curve, poor fit]
14 | CCCCN(C)CCNC(=O)CCn1nc(-c2ccc(C)cc2)ccc1=O | inconclusive [inhibitor, single point]
15 | C=CCn1c(=O)n(CCOC)c(=O)c2sc3ccccc3c21 | inconclusive [inhibitor, partial curve]
16 | CCCCN(C(=O)Cn1nnc2ccccc21)C(C(=O)NCCOC)c1ccc(OC)cc1 (stereo unspecified) | inconclusive [inhibitor, partial curve, poor fit]
17 | CCC(=O)Nc1ccc(-c2csc(NNC(C)=O)n2)cc1 | inconclusive [inhibitor, full curve, poor fit]
18 | C=CCN(c1ccccc1)S(=O)(=O)c1cccc(C(=O)Nc2nnc(SCC)s2)c1 | inactive
19 | O=C(Nc1ccc2c(c1)OCCO2)C1CCN(C(=O)c2ccc(Br)cc2)CC1 | inconclusive [inhibitor, full curve, poor fit]
20 | COc1ccc(OCc2cc(C(=O)NCC3(C)COC3)no2)c(Cl)c1 | inconclusive [inhibitor, partial curve]
21 | c1cc2c(cn1)cnc1cscc12 | inconclusive [inhibitor, partial curve, poor fit]
22 | O=C(OC1CCCCC1)c1cc2ccccc2oc1=O | inactive

Row | SMILES | Potency
23 | O=C1CCCN1CN(C(=O)c1ccccc1)c1ccc(F)cc1 | inconclusive [inhibitor, full curve, poor fit]
24 | Cc1cc2nn(-c3cccc4ccccc34)nc2cc1NC(=O)c1cccs1 | inconclusive [inhibitor, single point]
25 | Cc1ccc(NS(=O)(=O)c2cccc(C(=O)NNC(=O)c3ccco3)c2)c(C)c1 | inconclusive [inhibitor, full curve, poor fit]
26 | Cc1cc(C)n2ncc(C(=O)NC3CCCCC3)c2n1 | inactive
27 | CCOC(=O)c1ccccc1NS(=O)(=O)c1ccc(OCC)cc1 | inactive
28 | O=C(CSc1ncccn1)c1ccccc1Br | inconclusive [inhibitor, full curve, poor fit]
29 | Cc1cc(NS(=O)(=O)c2ccc(NC(=O)CSc3nnc(-c4ccco4)n3Cc3ccco3)cc2)nc(C)n1 | inconclusive [inhibitor, full curve, poor fit]
30 | Cn1nc(Oc2nc(N3CCOCC3)nc(N3CCOCC3)n2)ccc1=O | inconclusive [inhibitor, full curve, poor fit]
31 | COc1ccc(S(=O)(=O)N2CCOC2CNC(=O)C(=O)NCCN2CCOCC2)cc1 (stereo unspecified) | inactive
32 | COc1ccc(C)cc1S(=O)(=O)Nc1ccccc1 | inconclusive [inhibitor, single point]
33 | Cc1cc(/C=C(\C#N)C(=O)Nc2ccc(F)cc2)c(C)n1-c1ccc(N2CCOCC2)c([N+](=O)[O-])c1 | inconclusive [inhibitor, full curve, poor fit]
34 | O=C(CN1CCC(NC(=O)Nc2ccccc2-c2ccccc2)CC1)NCc1ccco1 | inconclusive [inhibitor, full curve]
35 | Cc1cccc(NC(=O)c2oc3ccccc3c2NC(=O)Cc2coc3cc(C)cc(C)c23)c1 | inactive
36 | Cc1ccccc1NC(=S)NC(=O)CCc1ccccc1 | inactive
37 | COCCNC(=O)CSc1nc(-c2ccc(C)cc2)[nH]c1-c1ccc(OC)cc1 | inactive
38 | COc1cc2c(cc1OC)C(c1cccc([N+](=O)[O-])c1)NC(=O)C2 (stereo unspecified) | inactive
39 | CC1CCCCC12NC(=O)N(CC(=O)N1CCN(S(=O)(=O)c3cccs3)CC1)C2=O (stereo unspecified) | inconclusive [inhibitor, full curve, poor fit]
40 | Cn1c(N/N=C/c2cccs2)cc(=O)n(C)c1=O | inconclusive [inhibitor, full curve]
41 | CCOc1ccc(-c2cc3c(=O)n(CC(=O)NCc4ccccc4)ccn3n2)cc1 | inactive
42 | Cc1ccc(SCC(=O)c2c(C)nc3ccccn23)cc1 | inconclusive [inhibitor, full curve, poor fit]
43 | CN(CC(=O)Nc1ccccc1Br)C(=O)c1cccc(S(=O)(=O)NCc2ccccc2)c1 | inconclusive [inhibitor, partial curve, poor fit]
44 | Cc1oc2ncnc(N3CCOCC3)c2c1C(=O)Nc1ccc(Br)cc1F | inactive

Row | SMILES | Potency
45 | O=C(O)c1ccccc1-c1nc2cc(Cl)ccc2c(=O)n1O | inconclusive [inhibitor, full curve, poor fit]
46 | Cc1ccc(C(=O)NC(=S)Nc2c(C)ccc3nsnc23)cc1 | inconclusive [inhibitor, full curve]
47 | COC(=O)[C@@]1(Cc2ccc(OC)cc2)[C@H]2c3cc(C(=O)N4CCCC4)n(CCc4c[nH]c5ccc(O)cc45)c3C[C@H]2CN1C(=O)c1ccccc1 | inconclusive [inhibitor, partial curve, poor fit]
48 | O=C(O)c1ccc(NC(=O)C2C3CCC(C3)C2C(=O)O)cc1 (stereo unspecified) | inconclusive [inhibitor, single point]
49 | Cc1cc(NC(=O)CSc2nc3ccccc3n2CC(=O)N2CC(C)CC(C)C2)no1 (stereo unspecified) | inconclusive [inhibitor, full curve, poor fit]
50 | Cc1ccc(-c2c(C)n([O-])c3c([n+]2=O)CCCC3)o1 | inconclusive [inhibitor, full curve]
51 | Cc1ccc(S(=O)(=O)Nc2ccccc2N2CCOCC2)cc1 | inactive
52 | Cc1ccc(Cl)cc1NC(=O)c1cc(S(=O)(=O)N2CCOCC2)cn1C | inconclusive [inhibitor, full curve, poor fit]
53 | COc1cccc(NC(=O)CSc2nnc(-c3cc(-c4ccccn4)nc4ccccc34)o2)c1 | inconclusive [inhibitor, full curve, poor fit]
54 | c1ccc2c(c1)nc(Nc1ccc(N3CCCCC3)cc1)c1nncn12 | inactive
55 | CC1CCCCC1NC(=O)c1cc2c(s1)CS(=O)(=O)C2 (stereo unspecified) | inconclusive [inhibitor, full curve]
56 | Cc1onc(-c2ccccc2)c1NC(=O)Nc1c(-c2ccccc2)noc1C | inconclusive [inhibitor, full curve, poor fit]
57 | Cc1cccc(NC(=O)C2C3C=CC4(O3)C2C(=O)N(CCCN2CCCC2)C4C(=O)NC2CCCC(C)C2C)c1 (stereo unspecified) | inconclusive [inhibitor, partial curve]
58 | Cc1ccc(-n2ncc3c2CC(C)(C)CC3NC(=O)CCc2ccncc2)cc1 (stereo unspecified) | inconclusive [inhibitor, full curve]
59 | O=C(c1cc(COc2ccc(F)cc2F)on1)N1C[C@H]2CC[C@H]1C2 | inactive
60 | CCOC(=O)c1oc2ccccc2c1COC(=O)CNC(=O)c1ccc(C)cc1 | inconclusive [inhibitor, full curve, poor fit]
61 | CCOC(=O)COc1ccc(C(c2c(C)[nH][nH]c2=O)c2c(C)[nH][nH]c2=O)cc1 | inconclusive [inhibitor, partial curve]
62 | CCOC(=O)c1ccc(NC(=S)Nc2ccc(Cl)cn2)cc1 | inactive
63 | Cc1nc(NC(=O)c2ccco2)sc1C(=O)O | inactive
64 | COC(=O)c1c2c(nc3ccccc13)CCC2 | inconclusive [inhibitor, full curve, poor fit]
65 | Cc1coc(=N)n1CC(=O)c1ccc(Cl)cc1 | inactive
66 | O=C(NCC(=O)N(c1ccccc1F)C(C(=O)NC1CCCC1)c1ccncc1)c1ccco1 (stereo unspecified) | inconclusive [inhibitor, full curve]
